Laboratory results: PubChem BioAssay AID938 (National Center for Advancing Translational Sciences (NCATS), 2007)
Screen size: about 73,000 compounds; about 1,800 (2.5%) were called active. Inconclusive results, whose numbers are uncertain, are shown with a selection of clear calls. Calls come from the whole dose curve; as a rule, active = well fitted activation curve with a large enough effect; inconclusive = small, poorly fitted or top-dose-only effect; inactive = no such curve, though single readings can be large or run the other way. Potencies of inconclusive entries are left out as doubtful fits.

assay: qHTS Assay for Agonists of the Thyroid Stimulating Hormone Receptor: Activators of Intracellular cAMP Concentrations in Parental HEK 293; conditions: parental HEK293 CNG cAMP sensor, membrane potential fluorescence; activation: at 57.1 µM (top of the series) unless noted; note: nearly all actives have a fitted effect of over 55% in size; for activation: % of control where 0% means no effect
Procedure, shortened: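 Parental HEK 293 cells stably expressing a cAMP-gated CNG channel were loaded with membrane potential dye containing 100 uM RO 20-1724 for 60 min. Compound added for 30 min; depolarization read as fluorescence intensity at 590 nm.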
Potency is the fitted concentration of half-maximal effect; tags give direction and shape of the fitted curve.

| Compound | Potency | activation |
| --- | --- | --- |
| O=C(Nc1ccc(OC(F)(F)F)cc1)C1=NCCN1 | inconclusive [activator, single point] |  |
| Cc1cc(C)nc(N2CCN(c3ncnc4c3cnn4Cc3ccc(Cl)cc3Cl)CC2)n1 | inactive |  |
| CSc1ccc(-c2nnn(Cc3ccc(C)cc3)n2)cc1 | inconclusive [activator, single point] |  |
| Cc1sc(NC(=O)CSc2nnc3scc(-c4ccccc4)n23)c(C#N)c1C | inconclusive [activator, single point] |  |
| CCOC(=O)c1[nH]c(C)c(C(=O)N2CCc3ccccc32)c1C | inconclusive [activator, full curve, poor fit] |  |
| Nc1nc(NC(=O)CCCC(=O)O)nn1-c1ccccc1 | inconclusive [activator, single point] |  |
| c1csc(-c2nnsc2-c2nc3ccccc3[nH]2)c1 | inconclusive [activator, partial curve, poor fit] |  |
| CO/N=C\c1ccc(C(=O)N2[C@H](c3ccc(C)cc3)[C@@H](C)CC[C@H]2C(=O)OC)cc1 | active: 2 µM |  |
| COc1ccc(CNc2ccnc(-c3ccc(C(=O)N(C)C)cc3)n2)c(OC)c1 | active: 0.794 µM |  |
| CO[C@@H]1/C=C\O[C@]2(C)Oc3c(C)c(O)c4c(O)c(c(CN5CCN(C)CC5)c(O)c4c3C2=O)NC(=O)/C(C)=C\C=C[C@@H](C)[C@@H](O)[C@H](C)[C@@H](O)[C@H](C)[C@H](OC(C)=O)[C@@H]1C |  | inactive: 9.68% [at 11.4 µM] |
| CSc1nc(-c2ccco2)nn1S(=O)(=O)c1ccc(C)cc1 | inactive |  |
| O=C(c1cc(-c2cccs2)on1)N1CCc2ccccc2C1 | inconclusive [activator, partial curve] |  |
| Cc1ccc(Nc2ncnc3nc[nH]c23)cc1Cl | active: 25.1 µM |  |
| Cc1cc(NC(=O)Nc2ccc(N(C)C)cc2)c2cc(F)cc(F)c2n1 | inactive |  |
| Cc1ccc(C(c2nnnn2C(C)(C)C)N2CCc3ccccc3C2)cc1 (configuration not stated) | inactive |  |
| CC(C)(C)OC(=O)N1CCC[C@H]1c1nnc(SCc2c(Cl)cccc2Cl)o1 | inconclusive [activator, full curve] |  |
| O=C(CSc1nc2sc3c(c2c(=O)n1-c1ccccc1)CCCC3)NCc1ccco1 | inactive |  |
| C=CCn1c(NCc2ccc3c(c2)OCO3)nc2ccccc21 | inactive |  |
| COCCOC(=O)c1[nH]c2c(c1C)C(=O)C(C(=O)OC)C(C)C2 (configuration not stated) | inactive |  |
| CC(C)CN(C(=O)COC(=O)c1cc2ccccc2oc1=O)C1CCS(=O)(=O)C1 (configuration not stated) | inconclusive [activator, single point] |  |
| c1ccc(-c2c3ccccc3nc3[nH]c4ccccc4c23)cc1 | active: 10 µM |  |
| COc1ccccc1CNc1cc(-c2c(C)noc2C)ncn1 | inconclusive [activator, full curve, poor fit] |  |
| COc1cccc(CNc2nc3ccccc3n2CCN2CCCCC2)c1OC | inactive |  |
| C=CC1CO1 (configuration not stated) |  | inconclusive: 45.8% [activator] |

| Compound | Potency | activation |
| --- | --- | --- |
| Cc1noc(C)c1-c1nc(N(C)C)c2ccccc2n1 | inactive |  |
| Cc1cccc(-c2nnc(SCC#N)n2-c2cccc(Cl)c2)c1 | inconclusive [activator, partial curve] |  |
| CCCn1c(-c2ccc(F)cc2)nc2c(N3CCCN(Cc4ccccc4)CC3)nc(C)nc21 | inconclusive [activator, full curve] |  |
| CCCCCC[C@@H]([C@@H](C)O)n1cnc2c(N)ncnc21 | inactive |  |
| CCOc1ccc(NC(=O)CCN2CCCCC2)cc1 | inconclusive [activator, single point] |  |
| CN(C)c1cccc(O)c1 | inconclusive [activator, full curve, poor fit] |  |
| c1coc(C2Nc3ccccc3-c3nc4ccccc4n32)c1 (configuration not stated) | inconclusive [activator, partial curve] |  |
| COc1ccc2sc(N3C(=O)C4CC=C(C)CC4C3=O)nc2c1 (configuration not stated) | inconclusive [activator, single point] |  |
| Cc1cc(C)c(C#N)c(Nc2ccc3c(c2)OCCO3)n1 | inconclusive [activator, single point] |  |
| COc1ccc(S(=O)(=O)c2ccc(OC)c(OC)c2)cc1OC | inconclusive [activator, partial curve] |  |
| O=C(CN1CC(c2ccccc2)CC1=O)Nc1ccc2c(c1)OCO2 (configuration not stated) | inconclusive [activator, single point] |  |
| CCC(C)(C)n1nnnc1C(c1ccc(OC)c(OC)c1)N1CCN(c2ccc(F)cc2)CC1 (configuration not stated) | inconclusive [activator, partial curve] |  |
| CCCCOc1ccccc1NC(=O)Cn1c(-c2nonc2N)nc2ccccc21 | active: 6.31 µM |  |
| CCOC(=O)c1c(C)c(C(=O)NCc2cccs2)c(C)n1C | inactive |  |
| c1cncc(-c2nc(Oc3ccc(-c4nnco4)cc3)c3c4c(sc3n2)CCCC4)c1 | inconclusive [activator, partial curve] |  |
| O=C(NCc1ccco1)c1cc(-c2ccc(F)cc2)on1 | inactive |  |
| COCC(=O)N1CCC2(CCCN(c3ccccc3)C2)CC1 | inconclusive [activator, single point] |  |
| Cc1cc(C)n(-c2nc3ccccc3c(=O)n2OCC(=O)OCc2ccccc2)n1 | inconclusive [activator, single point] |  |
| CCOC(=O)N1CCN(c2cc(=O)n(-c3ccccc3Cl)c(=O)[nH]2)CC1 | inconclusive [activator, single point] |  |
| CCCC[C@@H]1C[C@H]1C(NC(=O)c1ccccc1)c1ccc(Cl)cc1 (some centres not stated) | inconclusive [activator, full curve, poor fit] |  |
| COc1ccc(C(=O)N2CCC[C@@]3(CCN(Cc4cc(C(F)(F)F)cc(C(F)(F)F)c4)C3)C2)cc1 | inactive |  |
| Cc1nnc(SC(C)C(=O)Nc2ccc3c(c2)OCCO3)s1 (configuration not stated) | inactive |  |
| Cc1cc(C(=O)CSc2nnc(-c3cccc(F)c3)n2N)c(C)n1Cc1ccc2c(c1)OCO2 | active: 10 µM |  |
| CCn1c(SCC(=O)N2CCOCC2)nc2oc3c(Cl)cc(Cl)cc3c(=O)c2c1=O | inconclusive [activator, single point] |  |

| Compound | Potency | activation |
| --- | --- | --- |
| N#Cc1nc(Cc2ccccc2)oc1NCCc1ccccc1 | inconclusive [activator, single point] |  |
| COCC(=O)N(Cc1nc2ccccc2c(=O)[nH]1)Cc1cccs1 | inconclusive [activator, full curve] |  |
| CCc1ccc(OCC(=O)Nc2ncc3c(n2)CC(C)(C)CC3=O)cc1 | inconclusive [activator, full curve] |  |
| CC(C)OC(=O)C1C(=O)CC(C)(O)C(C(=O)OC(C)C)C1c1cccnc1 (configuration not stated) | inconclusive [activator, partial curve] |  |
| CNc1cc(C)nc(-n2nc(C)cc2C)n1 | inactive |  |
| CCn1c(SCC(=O)N2CCCC2)nc2c(c1=O)SC(C)C2 (configuration not stated) | inactive |  |
| CCOC(=O)c1cccc(NC(=O)Nc2cc(OC)ccc2OC)c1 | inconclusive [activator, full curve] |  |
| COc1ccc2cc(CN(Cc3ccco3)C(c3nnnn3C3CCCCC3)C(C)C)c(=O)[nH]c2c1 (configuration not stated) | inconclusive [activator, full curve, poor fit] |  |
| O=C(COc1ccccc1)Nc1ccccc1N1CCN(c2ccccc2)CC1 | inconclusive [activator, full curve, poor fit] |  |
| COc1ccccc1-c1nc(C#N)c(N2CCc3ccccc3C2)o1 | inconclusive [activator, partial curve] |  |
| Cc1ccc(Cn2c(-c3nonc3N)nc3ccccc32)cc1 | active: 31.6 µM |  |
| CC(C)OC(=O)CSc1nnc(-c2cnccn2)n1-c1ccc(Cl)cc1 | inconclusive [activator, single point] |  |
| CS(=O)(=O)N1CCC2(CC1)CN(c1ncccn1)C2 | inactive |  |
| Cc1ccc(C(CC(=O)N2CCCC2)c2ccccc2)c(O)c1C (configuration not stated) | inconclusive [activator, partial curve] |  |
| Brc1ccc(C2=Nn3c(nnc3-c3n[nH]c4c3CCC4)SC2)cc1 | active: 12.6 µM |  |
| COc1ccc(-n2nc(C(=O)NCC(=O)N3CCN(c4ccccn4)CC3)c3ccccc3c2=O)cc1 | inactive |  |
| CCN(CC)CCCN(C(C)=O)c1nc(-c2cc(OC)ccc2OC)cs1 | inconclusive [activator, single point] |  |
| COCCn1c(=O)c(CCc2ccccc2)nc2cnc(Oc3ccccc3)nc21 | active: 25.1 µM |  |
| Cc1cc(NC(=O)c2ccc(N(C)S(=O)(=O)c3ccccc3)cc2)no1 | inconclusive [activator, partial curve] |  |
| Cc1ccc2c(c1)CCCN2C(=O)c1cccs1 | inconclusive [activator, single point] |  |
| Cc1cnc(CNc2ncncc2-c2ccccc2C(F)(F)F)cn1 | inactive |  |
| COc1cc(OC)cc(C(=O)N2CCN=C2SCc2cccnc2)c1 | inconclusive [activator, full curve] |  |
| CCCn1c(-c2ccc(F)cc2)nc2c(N3CCC(N(C)C)C3)nc(C)nc21 (configuration not stated) | inconclusive [activator, partial curve] |  |
| CCCC1C(c2ccccc2)C(C#N)(C#N)C2(C#N)CC1(N)NC2=O (configuration not stated) | inconclusive [activator, single point] |  |
